# In PubChem BioAssay (Tox21):
# This list was built around the results that the source calls inconclusive (neither active nor inactive); the mix of calls is not that of the screen. No potency is given beside an inconclusive call; the fits are too rough. The source made the active and inactive calls. Calls follow the shape of the dose curve; as a rule, active = well fitted cell-killing curve with a large enough effect in the repeat runs; inconclusive = weak or mixed curves; inactive = flat fitted curve, though single readings scatter.
# Assay: qHTS assay to identify small molecule antagonists of the TGF-beta/Smad signaling pathway - cell viability counter screen (AID 1346824); also: nearly all actives have a fitted effect of over 50% in size
# Settings: SBE-bla HEK293T viability, CellTiter-Glo luminescence; series mostly up to 76.8 µM
# Description: U.S. Tox21 Program National Center for Advancing Translational Sciences [NCATS] NIH Chemical Genomics Center [NCGC] U.S. Environmental Protection Agency [EPA] National Institutes of Environmental Health Sciences [NIEHS] National Toxicology Program [NTP] U.S. Food and Drug Administration [FDA] Tox21 Assay Overview: Transforming growth factor beta (TGF-beta) superfamily consists of a large number of structurally related dimeric proteins that act as hormones or local mediators in regulating a wide range of biological functions. This superfamily includes TGF-betas themselves, the bone morphogenetic proteins (BMPs) and the activins. These ligands induce oligomerization of serine/threonine receptor kinases and phosphorylate the cytoplasmic signaling molecules of Smad protein family. CellSensor SBE-bla HEK 293T cell line (Life Technologies, Carlsbad, CA), responsive to TGF-beta was used to screen Tox21 10K compound library for identification of agonists/antagonists of the Smad signaling pathway. This cell line contains a beta-lactamase reporter gene under control of the Smad binding element (SBE) stably integrated into HEK 293T cells. Also cytotoxicity of the compounds was tested in parallel by measuring the cell viability using CellTiter-Glo assay system in the same wells.
# Tox21 Assay Protocol Summary: SBE-bla HEK 293T cells were dispensed at 4,000/well in 5 uL of assay medium into black wall/clear-bottom 1536-well plates using a Multidrop Combi (ThermoFisher Scientific, Waltham, MA) dispenser. After the assay plates were incubated at 37 C and 5% CO2 for an overnight, 23 nL of compounds dissolved in DMSO, positive controls or DMSO only was transferred to the assay plate by a Pintool station (Kalypsys, San Diego, CA). Compound transfer was followed by the addition of 1 uL of 0.25 ng/mL TGF-beta1 or assay buffer using two separate tips of Flying Reagent Dispenser (FRD, Aurora Discovery, San Diego, CA). The assay plates were incubated at 37 C and 5% CO2 for 5 hr. One uL of LiveBLAzer B/G FRET substrate (Life Technologies) was added using a Flying Reagent Dispenser (FRD, Aurora Discovery, San Diego, CA) and the plates were incubated at room temperature for 2 hr. Fluorescence intensity (405 nm excitation, 460 nm and 530 nm emissions) was measured using an Envision plate reader (PerkinElmer, Shelton, CT). For cytotoxicity read, 4 uL of CellTiter-Glo reagent (Promega Corporation, Madison, WI) was added to each well of the assay plates using FRD. After 30 min incubation at room temperature, the luminescence intensity was measured using ViewLux plate reader (PerkinElmer).
# Potency is read from the fitted curve at half-maximal effect; tags tell the direction and shape of the fitted curve.
row,SMILES,Potency
1,COc1cc(C(=S)N2CCOCC2)cc(OC)c1OC,inactive
2,CCCCCCCCCCCCCCN(CCO)CCO,inconclusive [cytotoxic]
3,CCCCCCCCCCCCCBr,inactive
4,CN(C)c1ccc(C(=N)c2ccc(N(C)C)cc2)cc1,"inconclusive [cytotoxic, partial curve, poor fit]"
5,Nc1ccc2cc(S(=O)(=O)O)cc(O)c2c1N=Nc1ccccc1C(F)(F)F,"inconclusive [cytotoxic, single point]"
6,O=C(O)c1ccc(O)cc1,inactive
7,CC(C)NC[C@@H](O)COc1ccc(CC(N)=O)cc1,inactive
8,CCCOCCO,"inconclusive [cytotoxic, single point]"
9,OCC(F)(F)F,inactive
10,C=C1CC[C@H](O)CC1=C/C=C1\CCC[C@]2(C)[C@@H]([C@H](C)/C=C/[C@H](C)C(C)C)CC[C@@H]12,"inconclusive [cytotoxic, single point]"
11,CCCCCCCCCCCCCCCCCCO,inactive
12,CC[C@@H]([C@H](C)O)n1ncn(-c2ccc(N3CCN(c4ccc(OC[C@@H]5CO[C@@](Cn6cncn6)(c6ccc(F)cc6F)C5)cc4)CC3)cc2)c1=O,"inconclusive [cytotoxic, single point]"
13,C=C(C)C(=O)OCCCCCCCCCC,inactive
14,O=C1C=CC(=O)N1c1cccc(N2C(=O)C=CC2=O)c1,active: 54.9 µM
15,N=C(N)c1ccc(OCCCCCOc2ccc(C(=N)N)cc2)cc1,"inconclusive [cytotoxic, partial curve]"
16,CC(C)(C)C1CCCCC1=O (stereo not given),"inconclusive [cytotoxic, partial curve, poor fit]"
17,NC(=O)NC(N)=O,inactive
18,O=C1c2ccccc2C(=O)c2c(O)ccc(O)c21,"inconclusive [cytotoxic, single point]"
19,CC1=CC[C@@]23C[C@@H]1C(C)(C)[C@@H]2CC[C@H]3C,"inconclusive [cytotoxic, single point]"
20,O=C1CCCCCCCCCCOCCCCO1,inactive

row,SMILES,Potency
1,CC1c2ccccc2CN1NC(=O)c1ccc(Cl)c(S(N)(=O)=O)c1 (stereo not given),inactive
2,O=C(O)CCCC[C@@H]1SC[C@@H]2NC(=O)N[C@@H]21,inactive
3,O=C1CCCCCN1SSN1CCCCCC1=O,inconclusive [cytotoxic]
4,CCC(C)COC(=O)CC(C)C (stereo not given),inactive
5,CC/C=C/CCO,inactive
6,C=CCCCCCCCCC(=O)OCCCC,inactive
7,C1COCCN1,inactive
8,c1ccc(C[P+](c2ccccc2)(c2ccccc2)c2ccccc2)cc1,"inconclusive [cytotoxic, partial curve, poor fit]"
9,Cc1ccc2cccnc2c1,"inconclusive [cytotoxic, partial curve, poor fit]"
10,CN(C)CCOC(c1ccc(Cl)cc1)c1ccccn1 (stereo not given),"inconclusive [cytotoxic, partial curve, poor fit]"
11,CC[C@H]1OC(=O)[C@H](C)[C@@H](O[C@H]2C[C@@](C)(OC)[C@@H](O)[C@H](C)O2)[C@H](C)[C@@H](O[C@@H]2O[C@H](C)C[C@H](N(C)C)[C@H]2O)[C@](C)(O)C[C@@H](C)/C(=N\OCOCCOC)[C@H](C)[C@@H](O)[C@]1(C)O,inactive
12,O=C1CCc2ccccc2O1,inactive
13,COCCOCCOCCO,"inconclusive [rising, partial curve, poor fit]"
14,COc1cc(NCc2ccc3nc(N)nc(N)c3c2C)cc(OC)c1OC,"inconclusive [cytotoxic, full curve]"
15,Cc1nccn1-c1ccc(Sc2cccc(C3(C(N)=O)CCOCC3)c2)cc1,"inconclusive [cytotoxic, partial curve]"
16,Fc1ccc(C(c2ccc(F)cc2)N2CCN(C/C=C/c3ccccc3)CC2)cc1,"inconclusive [cytotoxic, single point]"
17,CCCOC(=O)c1c(Cl)c(Cl)c(Cl)c(Cl)c1C(=O)OCCC,"inconclusive [cytotoxic, full curve, poor fit]"
18,N=C(N)N,"inconclusive [rising, partial curve]"
19,Cc1ccc2c(c1)CCCN2,inactive
20,CN[C@@H]1[C@H](O)[C@H](NC)[C@H]2O[C@@]3(O)C(=O)C[C@@H](C)O[C@H]3O[C@@H]2[C@H]1O,inactive
